# Assay results as given in PubChem BioAssay (NCI).
# Some structures have more than one record in an assay (separate samples or runs), and their calls can disagree.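 48-hour exposure, single concentration, 96-well plates; percent growth endpoint where 0 means no net growth. Active: below 10.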 A number of entries come with more than one value. They are shown here; other results are not. An entry can have further records. The screen tested this drug many times, at its own concentration, as given; each value is one run. Counts like (3×) stand for listed records that agree.
# Assays:
# [1] = system: MDA-MB-435 melanoma; assay: NCI-60 one-dose screen, 48 h (100 = growth as untreated, 0 = no growth, -100 = all killed); conditions: 25 µM
# [2] = system: SW-620 colon; assay: as above; conditions: 0.25 µM
structure (smiles),measurement,setting,value
COc1cccc2c1C(=O)c1c(O)c3c(c(O)c1C2=O)C[C@@](O)(C(=O)CO)C[C@@H]3OC1CC(N)C(O)C(C)O1 (stereo not given in full),growth,[1]; runs of 1998,"active: -98.8, -85.4, -98.6, -51.3, -74.8, -50.6, -100 (5×), -75.8, -89.4, -61.5, -88.1, -82.3, -94.3, -95.7, -96.8, -82.8, -66.4, -90.9, -99.7, -65.2, -66.5, -78.6, -88.2%"
same,growth,[1]; runs of 1999,"active: -86, -83.4, -77.9, -89.5, -41.3, -44.2, -93.6, -64, -94.3, 0.222, 2.02, -9.92, -100, 2.15, -67% and inactive: 10.5%"
same,growth,[1]; runs of 2000,"active: -41.5, -100, 4.85, -87%"
same,growth,[2]; runs of 2006,"inactive: 32%, 24.6%"
same,growth,[2]; runs of 2007,"inactive: 40, 24.5, 19.4, 21.9, 25.7 (2×), 27.4, 30.2, 27.5, 32.3, 30.4, 25, 27.9, 45.4, 21.5, 23.9, 32.7, 39.1, 33.4, 40.3, 35.1, 29.3, 27.2, 34.2, 33.3 (3×), 34.1 (2×), 33.6, 38.5, 45.2, 33.8, 38.1, 44% and active: 0.0407%"
same,growth,[2]; runs of 2008,"inactive: 39.9, 28.6, 34, 30.4 (2×), 48.3, 42.6, 30.8, 37.4 (2×), 35.5, 35.2, 20.3, 29.4, 32.5 (2×), 36.3, 24.7, 29.3 (2×), 25.2 (2×), 24.6, 29.9, 32.8, 29.1, 101, 34.6 (4×), 22.8, 20.6 (2×), 36.2, 19.4, 19.5, 28.9, 29.5, 22.5, 25, 34.4, 37.8 (2×), 40.4, 50.2, 41.2, 27.6, 31.4%"
same,growth,[2]; runs of 2009,"inactive: 32, 29.5, 29.7, 37, 38.1, 43.9, 36.3, 30.1, 33.2 (2×), 41, 39.1, 35.7, 27.9, 39.5 (2×), 33.9, 32.8, 44.7, 37.8 (2×), 31.4 (4×), 35.9, 38.7, 38.5 (2×), 39.2, 26, 30.4, 35.2, 33.1 (2×), 34.5, 32.7, 41.3, 26.1, 36.2, 37.2, 43.6 (2×), 37.4, 26.4, 27.7 (2×), 37.9, 29.2, 17.9, 38.9, 25.3, 21.1, 21.2 (2×), 38.6, 45.1, 24.2, 23.2, 30.5, 34.7, 45.3, 33.3% and active: -1.02%"
same,growth,[2]; runs of 2010,"inactive: 39.4, 36.2 (2×), 38.5, 28.6 (2×), 30.5, 33.6, 26.7, 38.9, 33.2 (2×), 38.6, 36.5, 34.7, 33.8, 27, 34.6 (2×), 35.5, 35.8 (2×), 42.1, 27.5, 27.3, 27.7, 27.4, 24, 28.2, 27.9, 32.7, 38.1, 32.9 (2×), 40, 34, 39.3, 39, 37, 36.4, 35.7 (2×), 30.8, 37.5, 37.6%"
same,growth,[2]; runs of 2011,"inactive: 36.4 (2×), 35.2, 33.7 (4×), 34.6 (2×), 33.6, 38.6, 36, 33.9 (3×), 39.9, 35.7, 39.6, 39.4, 37.7, 36.1, 34.2 (2×), 38.2, 41.5, 40.1, 42, 39.2, 34.4, 33.2, 31.5, 37.5 (2×), 32.7, 29.5, 38.7, 40.8, 42.1, 40, 35.9, 37, 35.8, 32.8%"
same,growth,[2]; runs of 2012,"inactive: 22.5, 37.2, 35.4, 32.8, 33.9 (2×), 34.5, 35.2, 30.7 (2×), 39.7 (2×), 32.3 (2×), 32.9, 31.7 (2×), 29.4, 31.5, 30.1 (2×), 33.3 (2×), 36.4 (2×), 37.8 (2×), 36.9, 35.6, 35.7, 36.1, 47.4, 40.4, 36.5, 28.8, 35.1, 36.8, 34.2, 35.8, 34.4, 34.7, 36.3, 34.1, 38.9, 39, 50.6, 45.5, 45, 43.7, 40.7, 29.9, 33.1, 36, 32.5, 28.9, 26.2, 31.4, 27, 23.7%"
same,growth,[2]; runs of 2013,"inactive: 36.1, 33.9 (2×), 39, 36, 27.9, 39.3, 38.9, 33.7, 37.1, 39.7 (2×), 39.1, 32.7 (2×), 38.2 (2×), 33.2 (2×), 38.5, 30.8 (3×), 32.5, 25.4, 34.1, 30.1, 39.2, 41.5, 43.1, 40, 42, 33.3, 39.6, 35.2 (2×), 39.5, 38.1, 32.9, 37.4, 37, 34, 32, 27.5, 27.3, 34.6, 29.3, 26.5, 29.5 (2×), 33.6, 29.9, 35.4, 33.1, 31.5, 27.7, 23.6 (2×), 23.3%"
same,growth,[2]; runs of 2014,"inactive: 36.3 (2×), 38.6 (2×), 34 (2×), 30.4 (3×), 29.4 (2×), 26.6, 33.1 (2×), 28.2, 25, 28.8, 26.3 (2×), 33.7, 32.7 (2×), 29, 26.9, 30.2 (2×), 24.1, 35.9, 29.3, 39, 37.5, 28.9, 33.2, 35.4 (2×), 37.6, 36.2 (2×), 32.8, 35.7, 38.2, 35.6 (2×), 30.8 (2×), 32 (2×), 39.1, 37.4, 37.9, 38.9, 33.8 (2×), 33.9, 31.7, 29.1, 30.7, 42.7, 39.5, 39.2, 34.4, 34.5 (2×), 37.7, 36, 34.6 (2×), 30.5, 27.6, 27.5, 44.1, 35.5, 32.3, 32.5%"
same,growth,[2]; runs of 2015,"inactive: 35.9 (2×), 29.5 (2×), 37.7, 38.6 (4×), 35.5, 32.2, 26.5, 30.2, 39.7, 42.4, 37.9 (2×), 28.9, 33.4, 27.4 (2×), 30.5, 55.6, 53.1, 32.7, 30, 27.2, 26, 24.8, 29 (2×), 29.1, 39.3 (2×), 35.8, 32.8 (4×), 39.1, 36.2, 34.7 (2×), 28.4, 29.7, 38.5, 34.6, 31.7, 30.3, 30.7 (2×), 27.3, 26.9, 41.2, 27.6, 30.6, 28.6, 29.2 (3×), 32.9, 35.4, 36.1 (2×), 36, 33.1, 37.5, 36.4, 34.5, 37, 38.7, 45.2, 40.5, 37.6%"
same,growth,[2]; runs of 2016,"inactive: 30.6 (3×), 32.9, 37.7, 30.3, 34.7, 32.2 (2×), 35.9, 31.4 (2×), 36.8, 34.6 (2×), 34 (2×), 39.2 (2×), 28, 31.5 (2×), 30.8, 27.5, 30.2, 33.3, 29.5, 30.4, 30, 29.9, 38.7, 38.9, 43.2 (2×), 40.1, 41.3, 37.8, 35.8, 33.7, 32.3, 32.7, 41.1, 40.4, 27.2, 37.1, 26.5, 37.9, 43.6, 38.5, 34.2, 42.4, 40.3, 39, 45.9, 42.3 (2×), 42.1, 48.1, 44.2, 46.5, 40.7, 36.9, 40, 36.5, 39.4, 39.5 (2×), 43.4%"
same,growth,[2]; runs of 2017,"inactive: 39.3 (3×), 35.8 (2×), 34.1 (4×), 32 (2×), 40.1 (2×), 37, 36.3, 33.9 (2×), 32.3, 27.7 (2×), 34 (2×), 30.6, 32.7, 29.5 (2×), 30.4 (2×), 32.5 (2×), 29.9 (2×), 29.4, 27 (2×), 34.2 (2×), 36.5, 30.7, 30.8 (2×), 38.9, 37.5 (2×), 36.8, 29.8, 34.7, 35.9, 35.6, 29.1 (2×), 31.5, 33.7, 30.1 (2×), 33.6 (2×), 29 (2×), 35.7, 32.2, 28.9, 26.6, 37.4, 33.8, 25.3, 28.6, 28.4, 32.9%"
